# Measurements published in PubChem BioAssay AID1508623 (National Center for Advancing Translational Sciences (NCATS), 2021).
# Hit rate of the full screen: of about 48,000 compounds, about 450 (0.94%) were called active. Another 19% or so got no clear call; they are omitted. Calls come from the whole dose curve; as a rule, active = well fitted inhibition curve with a large enough effect; inconclusive = small, poorly fitted or top-dose-only effect; inactive = no such curve, though single readings can be large or run the other way. This is one part of the list.
# Assay: Primary qHTS for Identification of Small Molecule Inhibitors of Huntingtin Promoter Activity; note: nearly all actives have a fitted effect of over 50% in size
# Details: HEK293 HTT promoter firefly luciferase reporter (activity 0% = vehicle and -100% = no light), 24 h; series mostly up to 57.5 µM; activity change, negative = inhibition: at the top concentration
# Procedure, shortened: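 Firefly luciferase readout (Dual-Glo, 10 min RT) after 24 h, 37 °C compound exposure (final up to 57.5 uM) of HEK293 reporter cells cultured 24 h beforehand; PTC124 at 50 uM final as control inhibitor; activity scaled vehicle 0%, zero RLU -100%.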
row,Compound,"activity change, negative = inhibition"
1,CCC(=O)N1CCc2cc(Br)cc(S(=O)(=O)CCC(=O)Nc3ccc(Cl)cc3)c21,inactive: -9.95%
2,Cc1cccc(C)c1NC(=O)CCC(=O)N1Cc2ccccc2Oc2ncccc21,inactive: -15.5%
3,COc1ccc(Oc2nc3c(c(=O)n(C)c(=O)n3C)n2Cc2ccc(Cl)cc2Cl)cc1,inactive: -12.6%
4,CC(=O)N(CC(O)CO)c1c(I)c(C(=O)NCC(O)CO)c(I)c(C(=O)NCC(O)CO)c1I (stereo unspecified),inactive: 14%
5,O=C(NC1CCN(Cc2ccccc2)CC1)c1ccc(Cn2c(=O)c3ccccc3n(Cc3cccc(F)c3)c2=O)cc1,inactive: -8.24%
6,Cc1ccc2c(=O)c(C(=O)c3ccc(Cl)cc3)cn(CC(=O)Nc3ccc4c(c3)OCCO4)c2n1,inactive: -18.7%
7,Cc1cccc(C(=O)NCc2nc3ccccc3n2Cc2ccccc2Cl)c1,inactive: -8.08%
8,O=C(Nc1cccc(OCc2cc(=O)n3ccccc3n2)c1)Nc1cccc(C(F)(F)F)c1,inactive: 27.9%
9,COc1cccc(NC(=O)Cn2c(=O)n(Cc3ccc(C(=O)NCc4ccc(C)cc4)cc3)c(=O)c3ccccc32)c1,inactive: 2.03%
10,CCOC(=O)c1c(C)n(-c2ccccc2)c2ccc(OC(=O)c3c(F)cccc3F)cc12,inactive: -9.7%
11,CCOc1ccc(Cn2c(CNS(=O)(=O)c3ccc(C(C)(C)C)cc3)nc3cccnc32)cc1,inactive: -17.9%
12,CCOc1ccc(CNC(=O)C2=Cc3cccc(OC)c3OC2)cc1,inactive: 43.8%
13,COc1ccc(CCNC(=O)C2c3ccccc3C(=O)N2Cc2ccccc2)cc1OC (stereo unspecified),inactive: -7.3%
14,Cc1ccccc1OCC(=O)Nc1ccc2nc(SCC(=O)N3CCOCC3)sc2c1,inactive: -21.4%
15,CCOc1ccc(NC(=O)CCNS(=O)(=O)c2cccs2)cc1,inactive: 11.5%
16,Cc1cc(Nc2ccccc2O)nc(C)n1,inactive: -4.01%
17,Cc1ccc(C)c(S(=O)(=O)n2nc(C)c(S(=O)(=O)N3CCCCCC3)c2C)c1,inactive: -13.3%
18,COc1ccc(NC(=O)CCCN2C(=O)CCn3nc(-c4cn(C)c5ccccc45)cc32)cc1,inactive: -23.2%
19,Cc1cccc(C)c1-n1ncc(C(=O)NCCN2CCN(C)CC2)c1C1CCN(C(=O)OC(C)(C)C)CC1,inactive: -23.2%
20,CCOc1ccc(C(=O)NCc2nc(-c3ccc(Cl)cc3)no2)cc1OCC,inactive: 4.71%
21,CCN(Cc1ccccc1)S(=O)(=O)c1ccc(F)c(C(=O)Nc2cc(C)ccc2OC)c1,inactive: -7.02%
22,COC(=O)c1sc2cccc(F)c2c1S(=O)(=O)N1CCN(c2cccc(C)c2)C(C)C1 (stereo unspecified),inactive: -23.4%
23,CC1CCc2c(sc(NC(=O)CCCOc3ccccc3)c2C(N)=O)C1 (stereo unspecified),inactive: 0.582%

row,Compound,"activity change, negative = inhibition"
1,CC(C)(C)OC(=O)N1CCC(c2c(C(=O)N3CCN(C(=O)c4ccco4)CC3)cnn2-c2ccc(F)cc2F)CC1,inactive: -10.5%
2,CCCOC(=O)c1c(NC(=O)c2cc3ccccc3c(=O)o2)sc2c1CCC(C)C2 (stereo unspecified),inactive: -14%
3,COc1ccc(-c2cn3c(C)c(C(=O)Nc4cc(C)cc(C)c4)sc3n2)cc1,inactive: -29.8%
4,CCOC(=O)c1cnc2c(Cl)cc(Cl)cc2c1Nc1ccccc1OC,inactive: -2.52%
5,Cc1ccc(-c2nnc3c4ccccc4c(C)nn23)cc1NC(=O)c1ccccc1,inactive: 11.2%
6,COC(=O)c1ccc(Cn2nnc3c(=O)[nH]c(C4CCCN(S(=O)(=O)c5ccccc5Cl)C4)nc32)cc1 (stereo unspecified),inactive: -7.74%
7,CCc1cccc(NC(=O)CN(C)S(=O)(=O)c2ccc3[nH]c4c(c3c2)CCCC4)c1,inactive: -24.5%
8,CCc1ccccc1-n1c(N)c(C(=O)OC)c2nc3ccccc3nc21,inactive: -21.2%
9,COc1cc(NC(=O)c2nnn(CC(=O)Nc3cc(C)ccc3C)c2N)cc(OC)c1,inactive: -10.1%
10,CCOc1cc(C(=O)Nc2ccc3c(c2)n(C)c(=O)c(=O)n3C)cc(OCC)c1OCC,inactive: -3.1%
11,CCOc1ccc(-n2c(SCC(=O)Nc3ccc(CC)cc3)nc3c(oc4ccccc43)c2=O)cc1,inactive: -14.6%
12,CCOC(=O)CCc1c(C)nc2cc(-c3cc(OC)cc(OC)c3)[nH]n2c1=O,inactive: 6.87%
13,COc1cc(NC(=O)c2cc(-c3cccc(OC)c3)n[nH]2)cc(OC)c1,inactive: 2.43%
14,CCOC(=O)c1c(C)oc2ncnc(Nc3cc(C)cc(C)c3)c12,inactive: 7.96%
15,O=C(NCCc1csc2nc(-c3ccccc3F)nn12)C(=O)Nc1cc(F)ccc1F,inactive: 11.9%
16,COc1ccc(CNC(=O)c2cnn3c(C)c(Cc4c(F)cccc4Cl)c(C)nc23)cc1,inactive: -30.3%
17,COc1cc(O)cc(O)c1,inactive: 10.2%
18,Cc1cccc(N2CCN(C(=O)c3cnc(N4CCCC4)nc3C)CC2)c1C,inactive: -26.8%
19,COc1ccc(C2c3c(n(C)c4ccccc34)C(=O)N2CC(=O)Nc2cccc(Cl)c2C)cc1 (stereo unspecified),inactive: -16.2%
20,CC1CCCN(C(=O)Cn2ncc3c([nH]c4ccccc43)c2=O)C1 (stereo unspecified),inactive: -3.03%
21,CCCCOc1ccc(C(=O)NCc2nnnn2-c2ccc(C)c(C)c2)cc1,inactive: -5.91%
22,COC(=O)c1c(NC(=O)/C(C#N)=C/c2ccccc2)sc2c1C(C(=O)OC)CC2 (stereo unspecified),inactive: -19.4%
23,CCc1ccccc1NC(=O)Cn1c(=O)ccc2cc(S(=O)(=O)N3CCCC3)ccc21,inactive: -23.5%
